Source: PubChem BioAssay AID488969 (Vanderbilt High Throughput Screening Facility, 2010)
The full ranking holds about 110,000 compounds; the median of “z-score” is about -0.1, and the highest 2% start at about 2. The list shows a part of the results. The source made the active and inactive calls.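 How the source made its calls: active means z-score in the third read window above 3 or below -3; inactive means the rest.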

What follows are molecules tested against Metabotropic glutamate receptor 8 (Rattus norvegicus) (UniProt P70579) (assay: rat mGluR8 modulators via GIRK flux, primary screen, cell-based, thallium flux, HTS (AID 488969)). Details: HEK293 rat mGluR8, GIRK (G protein-gated inwardly rectifying potassium channel) thallium flux, FluoZin2; at 10 µM; stronger effect = higher value; submaximal glutamate (EC20) added with thallium.
Sequence of UniProt P70579 (P70579 whole entry, looked up): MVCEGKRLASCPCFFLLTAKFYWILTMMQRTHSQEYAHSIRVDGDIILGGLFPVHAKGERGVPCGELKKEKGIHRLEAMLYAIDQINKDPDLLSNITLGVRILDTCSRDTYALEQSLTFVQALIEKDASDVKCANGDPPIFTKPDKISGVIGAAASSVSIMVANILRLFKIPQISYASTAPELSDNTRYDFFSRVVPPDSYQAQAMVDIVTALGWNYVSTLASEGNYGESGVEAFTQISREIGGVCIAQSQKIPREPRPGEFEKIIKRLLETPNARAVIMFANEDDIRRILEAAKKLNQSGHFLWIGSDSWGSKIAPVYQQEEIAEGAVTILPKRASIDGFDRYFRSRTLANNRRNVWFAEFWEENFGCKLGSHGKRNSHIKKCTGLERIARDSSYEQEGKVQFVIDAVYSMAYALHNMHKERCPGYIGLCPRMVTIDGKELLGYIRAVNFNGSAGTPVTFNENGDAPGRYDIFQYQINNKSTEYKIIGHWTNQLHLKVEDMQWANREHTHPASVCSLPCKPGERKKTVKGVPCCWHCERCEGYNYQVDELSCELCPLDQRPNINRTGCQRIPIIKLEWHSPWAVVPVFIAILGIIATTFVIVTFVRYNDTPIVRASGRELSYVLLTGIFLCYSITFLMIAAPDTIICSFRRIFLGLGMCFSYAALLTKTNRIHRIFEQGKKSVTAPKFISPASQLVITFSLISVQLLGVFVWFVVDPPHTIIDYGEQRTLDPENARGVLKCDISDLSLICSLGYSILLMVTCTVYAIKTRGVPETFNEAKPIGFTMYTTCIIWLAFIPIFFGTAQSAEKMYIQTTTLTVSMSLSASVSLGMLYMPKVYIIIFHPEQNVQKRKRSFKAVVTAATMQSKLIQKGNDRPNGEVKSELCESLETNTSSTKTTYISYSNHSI
For CN(c1ccccc1)C1CCCCC1NS(=O)(=O)c1ccc(Cl)cc1 (stereo unspecified), the z-score was 0.158.
For CCOc1cccc(NC(=O)C2CC(=O)N(C)C2)c1 (stereo unspecified), the z-score was -0.223.
With Cc1ccc(NC(=O)CCc2ccc(S(=O)(=O)N3CCOCC3)cc2)c(C)c1 the z-score was -0.0346.
With CCOC(=O)c1c(NS(=O)(=O)Cc2ccccc2)sc2c1CCCC2 the z-score was active: 17.1.
With CCOC(=O)c1ccc(S(=O)(=O)N2CCC(C(=O)O)CC2)cc1 the z-score was -0.274.
For CS(=O)(=O)c1ccccc1-c1nc(-c2cc(C(F)(F)F)cc(C(F)(F)F)c2)no1, the z-score was 0.64.
COc1cccc(-c2cc(C(=O)Nc3nc4ccccc4s3)c3ccccc3n2)c1 was tested, and the z-score was -0.35.
In the case of COc1ccc(OC)c(NC(=O)C(=O)NNC(=O)c2cccs2)c1, the z-score is reported as 1.69.
Molecule CCOC(=O)c1c(NC(=O)Cn2nnc3ccccc32)sc2c1CCC(C)C2 (stereo unspecified) has a z-score of -0.821.
CC1=Nc2ccc(C)c3nc(C)cc(c23)N1c1ccc(C)cc1 showed a z-score of -2.06.
Work on Cc1cccc2c(C(=O)O)c3c(nc12)CCCCC3 yielded a z-score of 0.0547.
c1ccc(-c2cc(-c3ccc(N4CCOCC4)cc3)nc3ccccc23)cc1 was tested, and the z-score was 0.0553.
CCOc1ccc(NC(=O)Nc2cc(C)ccc2F)cc1 was tested, and the z-score was 0.662.
In the case of CCNC(=O)COC(=O)COc1ccc(Cl)cc1C, the z-score is reported as -1.03.
CCCCC1S/C(=N/N=C/c2ccco2)NC1=O (stereo unspecified) was tested, and the z-score was -0.238.
Molecule CSc1nc(C)c(CCOC(=O)c2cccc(Cl)c2)c(=O)[nH]1 has a z-score of 0.163.
Cc1ccc(OCCNC(=O)c2cncc(Br)c2)cc1C was tested, and the z-score was -0.29.
CN(c1cccc(NC(=O)COc2ccccc2)c1)S(C)(=O)=O was tested, and the z-score was 0.0649.
O=C(O)c1cccc(N2C(=O)CSC2c2c(F)cccc2Cl)c1 (stereo unspecified) showed a z-score of -0.536.
Molecule COc1ccc(OCCC(=O)OCC(=O)Nc2cccc(Br)c2)cc1 has a z-score of 0.19.
In the case of COc1ccc(C(=O)Oc2cc(/C=N/NS(=O)(=O)c3ccccc3)ccc2OC)cc1, the z-score is reported as -0.732.
In the case of Cc1ccc(-c2nc3ccccc3s2)cc1S(=O)(=O)N1CCCC1, the z-score is reported as 0.359.
Cc1ccn(C(=O)c2cc3cc(Cl)ccc3oc2=O)n1 was tested, and the z-score was 0.103.
For CCn1c(=O)cc(OCC(=O)NCc2ccco2)c2ccccc21, the z-score was 0.0612.
Cc1c(C(=O)N2CCOCC2)oc2c1C(=O)CC(C)(C)C2 showed a z-score of -0.336.
With N#CC1(NC(=O)COc2ccc3oc4ccccc4c3c2)CCCCC1 the z-score was -0.147.
With Cc1cc(C)cc(N(C(=O)c2csnn2)C(C(=O)NC(C)(C)C)c2cccs2)c1 (stereo unspecified) the z-score was -0.207.
With Cc1ccccc1Nc1nc(N)nc(COC(=O)c2ccccc2)n1 the z-score was -0.226.
In the case of CCC(CC)C(=O)N1CCN(Cc2ccc3c(c2)OCO3)CC1, the z-score is reported as -0.17.
Cc1nn(-c2cccc(Cl)c2)c2c1C(c1ccncc1)C(C#N)=C(N)O2 (stereo unspecified) gave a z-score of -0.121.
With Cc1ccccc1-c1nnn(CC(=O)N2CCN(S(=O)(=O)c3ccc(Cl)cc3)CC2)n1 the z-score was -0.031.
With COc1ccccc1CNC(=O)c1ccc2nc3[nH]c4ccccc4c3nc2c1 the z-score was 0.337.
In the case of COc1c(C)cccc1C(=O)Nc1ccc(CN2CCCCC2)cc1, the z-score is reported as 0.088.
For CC(=O)NCCC(=O)Nc1cccc(S(=O)(=O)N(C)c2ccccc2)c1, the z-score was 0.337.
CSCCC(NC(=O)c1ccco1)C(=O)OCC(=O)Nc1ncc(Cl)c(C)c1Cl (stereo unspecified) showed a z-score of -0.754.
Molecule Cc1nc(N2CCN(Cc3ccccc3)CC2)c(C#N)c2c1COC(C)(C)C2 has a z-score of -0.749.
For Cc1nn(-c2cc(N3CCNCC3)ccc2[N+](=O)[O-])c(=O)c2ccccc12, the z-score was 1.86.
Work on Cn1cc([N+](=O)[O-])c(C(=O)Nc2cc(Oc3cccnc3)cc([N+](=O)[O-])c2)n1 yielded a z-score of -0.49.
COc1cc(NC(=S)NC2CC2)c(OC)cc1Cl was tested, and the z-score was -0.0971.
Work on CCOC(=O)c1ccc(NC(=O)c2nccnc2C(=O)O)cc1 yielded a z-score of -0.0513.
In the case of CCC(=O)NC(=S)Nc1cccc(NC(=O)c2ccccc2Cl)c1, the z-score is reported as -0.263.
For O=C(CSc1nc2ccccc2n1S(=O)(=O)c1cccc([N+](=O)[O-])c1)NCc1cccs1, the z-score was -0.000584.
With O=C(Nc1ccon1)c1ccc(Br)o1 the z-score was -0.216.
CCOC1=NC(C(=O)O)c2ccccc2/C(=C(/C)Cl)N1 (stereo unspecified) showed a z-score of 0.561.
With CC(CCc1ccccc1)NC(=O)/C=C/c1ccc(Cl)cc1 (stereo unspecified) the z-score was 0.452.
Work on O=C(NCCCO)c1ccc2[nH]c3c(c2c1)CCCC3 yielded a z-score of -0.983.
O=c1cc(O)nc2n1CCCS2 gave a z-score of 0.177.
O=C(CCNC(=O)c1ccco1)NCc1ccccc1 gave a z-score of 0.731.
With CCN(CC)N=Nc1ccc(C(=O)O)cc1 the z-score was 0.0652.
In the case of O=C(CNCc1ccccc1)Nc1ccccc1-c1ccccc1, the z-score is reported as -0.246.
Molecule CCOc1ccc(S(=O)(=O)N2CCN(Cc3ccccc3)CC2)c2cccnc12 has a z-score of 0.939.
Molecule CCOc1cc(C(=O)NCc2ccc(-c3nc4ccccc4o3)cc2)cc(OCC)c1OCC has a z-score of -0.159.
Molecule Cc1c(C(=O)N2CCCC2)sc(NC(=O)c2ccco2)c1C#N has a z-score of -0.347.
With O=C(CSc1nnc(-c2ccc(Cl)s2)o1)N1CCOCC1 the z-score was 0.367.
In the case of COC(=O)c1cc(Br)c(=O)n(Cc2ccc(OC)c(OC)c2)c1, the z-score is reported as 0.364.
Cc1ccc(OCC(=O)N2CC3(C)CC2CC(C)(C)C3)cc1 (stereo unspecified) gave a z-score of -0.513.
Work on COc1ccc(O)c(-c2c(-c3ccc(Cl)cc3)n[nH]c2C)c1 yielded a z-score of -1.4.
For COc1ccc(/C=C2\SC(=O)N(CCNC(=O)Cc3coc4cc(OC)ccc34)C2=O)cc1, the z-score was -0.116.
COc1ccc(N2C(=O)c3cccc4cccc(c34)C2=O)nn1 was tested, and the z-score was 0.132.
In the case of Cc1ccc(S(=O)(=O)Nc2cc(C(F)(F)F)ccc2N2CCOCC2)cc1C, the z-score is reported as -0.133.
For CS(=O)(=O)N1CCCC(C(=O)NCCCN2CCN(Cc3ccccc3)CC2)C1 (stereo unspecified), the z-score was 0.429.
For COc1ccc(C(NC(N)=O)c2ccccc2)cc1 (stereo unspecified), the z-score was -0.028.
For CC1(C)CC(=O)C2=C(C1)Nc1ccccc1N1C(=O)c3ccccc3C21 (stereo unspecified), the z-score was 0.37.
COc1ccc(OC)c(Nc2ccc(C(=O)O)cc2[N+](=O)[O-])c1 gave a z-score of 0.592.
In the case of COc1ccc(CC(=O)Nc2ccc(-c3csc(C)n3)cc2)cc1, the z-score is reported as 0.00773.
Cc1cc(CSc2ccccc2)ccc1NC(=O)c1ccc(C)c([N+](=O)[O-])c1 gave a z-score of -0.374.
With CCOc1ccc(NC(=O)C2CC(=O)N(C)C(=Nc3ccc4c(c3)OCO4)S2)cc1 (stereo unspecified) the z-score was 0.974.
Cc1cc(C)c(C(=O)CSc2n[nH]c(=O)n2C2CC2)cc1C showed a z-score of 0.657.
O=C(CSc1nc(Cc2ccccc2)nc2ccccc12)Nc1nc2c(s1)CCCC2 was tested, and the z-score was -0.124.
In the case of S=C1NC(c2ccccc2)=NCN1c1ccc(Cl)cc1, the z-score is reported as active: 3.19.
Fc1ccccc1/C=C1\CCCC2=C1Nc1ncnn1C2c1ccccc1F (stereo unspecified) gave a z-score of 0.12.
